Reference: publication PMC4374188
No constants are given. Whether binding was seen depends on the method and setting. In cells and extracts the contact can be indirect. Some entries that bind do so weakly or less than the wild type.

Protein sequences, listed by entry. Tags and fused reporters are not part of them.
UniProt Q15910: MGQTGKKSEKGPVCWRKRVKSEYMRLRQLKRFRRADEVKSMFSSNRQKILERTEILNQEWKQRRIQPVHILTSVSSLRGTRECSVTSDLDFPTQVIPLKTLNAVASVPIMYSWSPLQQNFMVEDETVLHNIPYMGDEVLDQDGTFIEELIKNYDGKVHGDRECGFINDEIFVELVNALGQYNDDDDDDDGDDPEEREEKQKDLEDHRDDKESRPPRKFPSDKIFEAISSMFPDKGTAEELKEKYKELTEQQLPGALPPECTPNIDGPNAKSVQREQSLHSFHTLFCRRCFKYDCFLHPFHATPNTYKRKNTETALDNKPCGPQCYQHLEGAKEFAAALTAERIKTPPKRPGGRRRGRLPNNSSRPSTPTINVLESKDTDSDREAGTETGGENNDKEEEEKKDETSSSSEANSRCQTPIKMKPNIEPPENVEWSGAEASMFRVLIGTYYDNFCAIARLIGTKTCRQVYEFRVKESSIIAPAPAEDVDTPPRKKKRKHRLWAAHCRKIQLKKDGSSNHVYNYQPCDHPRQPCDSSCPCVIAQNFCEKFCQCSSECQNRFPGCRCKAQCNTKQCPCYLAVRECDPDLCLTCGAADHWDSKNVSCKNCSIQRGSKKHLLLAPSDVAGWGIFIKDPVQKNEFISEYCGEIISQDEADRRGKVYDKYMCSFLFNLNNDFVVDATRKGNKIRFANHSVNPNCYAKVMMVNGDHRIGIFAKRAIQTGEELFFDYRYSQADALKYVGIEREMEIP
UniProt Q06945: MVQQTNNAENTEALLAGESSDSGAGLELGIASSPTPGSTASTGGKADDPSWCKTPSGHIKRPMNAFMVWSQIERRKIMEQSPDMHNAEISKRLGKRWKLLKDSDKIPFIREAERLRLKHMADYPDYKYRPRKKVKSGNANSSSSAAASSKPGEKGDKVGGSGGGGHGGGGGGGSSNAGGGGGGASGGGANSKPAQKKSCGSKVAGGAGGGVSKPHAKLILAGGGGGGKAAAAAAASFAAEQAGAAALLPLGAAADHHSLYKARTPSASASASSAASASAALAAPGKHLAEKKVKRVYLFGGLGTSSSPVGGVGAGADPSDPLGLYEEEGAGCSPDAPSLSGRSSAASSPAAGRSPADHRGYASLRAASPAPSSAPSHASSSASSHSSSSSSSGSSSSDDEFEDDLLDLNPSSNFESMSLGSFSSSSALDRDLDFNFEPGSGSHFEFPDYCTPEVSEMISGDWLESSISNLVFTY
UniProt O15379: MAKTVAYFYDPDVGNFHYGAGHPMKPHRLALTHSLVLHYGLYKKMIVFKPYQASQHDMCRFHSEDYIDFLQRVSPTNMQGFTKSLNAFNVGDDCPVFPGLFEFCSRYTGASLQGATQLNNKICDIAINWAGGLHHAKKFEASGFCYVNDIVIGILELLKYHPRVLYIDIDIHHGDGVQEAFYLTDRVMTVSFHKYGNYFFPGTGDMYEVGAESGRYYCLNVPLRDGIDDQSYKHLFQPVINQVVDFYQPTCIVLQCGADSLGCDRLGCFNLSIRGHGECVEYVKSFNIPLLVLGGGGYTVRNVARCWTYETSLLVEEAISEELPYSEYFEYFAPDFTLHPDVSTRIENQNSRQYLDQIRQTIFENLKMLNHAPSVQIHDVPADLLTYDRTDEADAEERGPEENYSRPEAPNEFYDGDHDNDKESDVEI
UniProt Q15022: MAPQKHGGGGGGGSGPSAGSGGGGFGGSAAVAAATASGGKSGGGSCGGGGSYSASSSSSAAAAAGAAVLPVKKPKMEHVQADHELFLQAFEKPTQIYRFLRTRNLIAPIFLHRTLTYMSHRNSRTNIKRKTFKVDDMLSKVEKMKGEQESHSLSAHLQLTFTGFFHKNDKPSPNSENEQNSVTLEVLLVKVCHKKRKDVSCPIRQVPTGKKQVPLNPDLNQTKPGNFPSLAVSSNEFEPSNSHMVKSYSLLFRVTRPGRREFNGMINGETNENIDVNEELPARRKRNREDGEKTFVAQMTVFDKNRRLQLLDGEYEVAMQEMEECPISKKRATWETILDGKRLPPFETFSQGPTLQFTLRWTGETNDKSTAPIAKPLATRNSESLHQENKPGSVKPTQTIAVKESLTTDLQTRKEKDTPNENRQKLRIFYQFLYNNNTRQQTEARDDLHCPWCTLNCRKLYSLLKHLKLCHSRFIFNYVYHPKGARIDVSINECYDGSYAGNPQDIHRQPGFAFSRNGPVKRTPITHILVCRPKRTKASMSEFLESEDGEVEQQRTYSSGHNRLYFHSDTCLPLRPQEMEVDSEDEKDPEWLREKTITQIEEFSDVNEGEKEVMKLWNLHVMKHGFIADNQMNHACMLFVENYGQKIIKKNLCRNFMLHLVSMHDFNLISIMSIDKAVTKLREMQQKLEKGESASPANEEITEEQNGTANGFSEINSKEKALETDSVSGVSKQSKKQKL

Assays:
[1] = molecular target: EZH2 (enhancer of zeste homolog 2) (human (endogenous in TE8 and FLO1)) (UniProt Q15910); assay: co-IP; TE8 cell lysate (500 ug total protein) with agarose-immobilised anti-SOX4, anti-EZH2, anti-HDAC3 or isotype control antibody (6 ug), overnight at 4 C; lysis buffer 150 mM NaCl, 50 mM Tris pH 8, 1% Triton X-100, 1% NP-40; immunoblot
[2] = molecular target: SOX4 (human (endogenous in TE8 and FLO1)) (UniProt Q06945); assay: as above
[3] = molecular target: EZH2 (enhancer of zeste homolog 2) (human (endogenous in TE8 and FLO1)) (UniProt Q15910); assay: co-IP; FLO1 cell lysate (500 ug total protein) with agarose-immobilised anti-SOX4, anti-EZH2, anti-HDAC3 or isotype control antibody (6 ug), overnight at 4 C; lysis buffer 150 mM NaCl, 50 mM Tris pH 8, 1% Triton X-100, 1% NP-40; immunoblot
[4] = molecular target: SOX4 (human (endogenous in TE8 and FLO1)) (UniProt Q06945); assay: as above
[5] = molecular target: HDAC3 (human (endogenous in TE8 and FLO1)) (UniProt O15379); assay: co-IP; TE8 cell lysate (500 ug total protein) with agarose-immobilised anti-SOX4, anti-EZH2, anti-HDAC3 or isotype control antibody (6 ug), overnight at 4 C; lysis buffer 150 mM NaCl, 50 mM Tris pH 8, 1% Triton X-100, 1% NP-40; immunoblot
[6] = molecular target: HDAC3 (human (endogenous in TE8 and FLO1)) (UniProt O15379); assay: co-IP; FLO1 cell lysate (500 ug total protein) with agarose-immobilised anti-SOX4, anti-EZH2, anti-HDAC3 or isotype control antibody (6 ug), overnight at 4 C; lysis buffer 150 mM NaCl, 50 mM Tris pH 8, 1% Triton X-100, 1% NP-40; immunoblot

HDAC3 (from UniProt O15379 1-428) (enzyme)
binding [1]: binds
binding [2]: binds
binding [3]: binds
binding [4]: binds

SUZ12 (from UniProt Q15022 1-739)
binding [5]: no binding
binding [6]: no binding

SOX4 (from UniProt Q06945 1-474)
binding [1]: binds
binding [5]: binds
binding [3]: binds
